The supplement of paper PMC8728848
Some of the results follow.

Key:
Assay in all cases: glycan array binding signal (z-score within array); higher = stronger binding
Details in all cases: glycan notation: IUPAC condensed, linker removed
[1] = molecular target: Neu5Ac(a2-3)Gal(b1-4)[Fuc(a1-3)]GlcNAc(b1-3)Gal(b1-4)GlcNAc
How it was run: (§1)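 Glycan array binding is given as a within-array Z-score, which can be read as non-binding when negative. The arrays, 3228 of them, came from the Consortium for Functional Glycomics database and were retained only where the protein sequence was available. Z-scores were averaged across arrays of the same protein sequence at different concentrations or buffers and across linkers.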

[2] = molecular target: Neu5Ac(a2-3)Gal(b1-4)[Fuc(a1-3)]GlcNAc(b1-3)Gal(b1-4)[Fuc(a1-3)]GlcNAc(b1-3)Gal(b1-4)[Fuc(a1-3)]GlcNAc
How it was run: as §1

[3] = molecular target: Neu5Ac(a2-3)Gal(b1-4)[Fuc(a1-3)]GlcNAc(b1-3)GalNAc
How it was run: as §1

[4] = molecular target: Neu5Ac(a2-3)Gal(b1-4)[Fuc(a1-3)]GlcNAc(b1-6)[Gal(b1-3)]GalNAc
How it was run: as §1

[5] = molecular target: Neu5Ac(a2-3)Gal(b1-4)[Fuc(a1-3)]GlcNAc(b1-6)[Neu5Ac(a2-3)Gal(b1-3)]GalNAc
How it was run: as §1

[6] = molecular target: Neu5Ac(a2-3)Gal(b1-4)[Fuc(a1-3)]GlcNAc6S
How it was run: as §1

[7] = molecular target: Neu5Ac(a2-3)Gal6S(b1-4)GlcNAc
How it was run: as §1

[8] = molecular target: Neu5Ac(a2-3)Gal6S(b1-4)[Fuc(a1-3)]GlcNAc
How it was run: as §1

[9] = molecular target: Neu5Ac(a2-3)GalNAc
How it was run: as §1

[10] = molecular target: Neu5Ac(a2-3)GalNAc(b1-4)GlcNAc
How it was run: as §1

[11] = molecular target: Neu5Ac(a2-3)[GalNAc(b1-4)]Gal(b1-4)Glc
How it was run: as §1

[12] = molecular target: Neu5Ac(a2-3)[GalNAc(b1-4)]Gal(b1-4)GlcNAc
How it was run: as §1

[13] = molecular target: Neu5Ac(a2-3)[GalNAc(b1-4)]Gal(b1-4)GlcNAc(b1-3)GalNAc
How it was run: as §1

[14] = molecular target: Neu5Ac(a2-3)[Neu5Ac(a2-6)]GalNAc
How it was run: as §1

[15] = molecular target: Neu5Ac(a2-6)Gal
How it was run: as §1

[16] = molecular target: Neu5Ac(a2-6)Gal(b1-3)GlcNAc(b1-3)[Gal(b1-4)GlcNAc(b1-6)]Gal(b1-4)Glc
How it was run: as §1

[17] = molecular target: Neu5Ac(a2-6)Gal(b1-4)Glc
How it was run: as §1

[18] = molecular target: Neu5Ac(a2-6)Gal(b1-4)GlcNAc
How it was run: as §1

[19] = molecular target: Neu5Ac(a2-6)Gal(b1-4)GlcNAc(b1-2)Man
How it was run: as §1

[20] = molecular target: Neu5Ac(a2-6)Gal(b1-4)GlcNAc(b1-2)Man(a1-3)Man(b1-4)GlcNAc(b1-4)GlcNAc
How it was run: as §1

[21] = molecular target: Neu5Ac(a2-6)Gal(b1-4)GlcNAc(b1-2)Man(a1-3)[Gal(b1-4)GlcNAc(b1-2)Man(a1-6)]Man(b1-4)GlcNAc(b1-4)GlcNAc
How it was run: as §1

[22] = molecular target: Neu5Ac(a2-6)Gal(b1-4)GlcNAc(b1-2)Man(a1-3)[GlcNAc(b1-2)Man(a1-6)]Man(b1-4)GlcNAc(b1-4)GlcNAc
How it was run: as §1

[23] = molecular target: Neu5Ac(a2-6)Gal(b1-4)GlcNAc(b1-2)Man(a1-3)[GlcNAc(b1-2)Man(b1-4)GlcNAc(b1-2)Man(a1-6)]Man(b1-4)GlcNAc(b1-4)GlcNAc
How it was run: as §1

[24] = molecular target: Neu5Ac(a2-6)Gal(b1-4)GlcNAc(b1-2)Man(a1-3)[GlcNAc(b1-4)][Neu5Ac(a2-6)Gal(b1-4)GlcNAc(b1-2)Man(a1-6)]Man(b1-4)GlcNAc(b1-4)GlcNAc
How it was run: as §1

[25] = molecular target: Neu5Ac(a2-6)Gal(b1-4)GlcNAc(b1-2)Man(a1-3)[Man(a1-6)]Man(b1-4)GlcNAc(b1-4)GlcNAc
How it was run: as §1

[26] = molecular target: Neu5Ac(a2-6)Gal(b1-4)GlcNAc(b1-2)Man(a1-3)[Neu5Ac(a2-3)Gal(b1-4)GlcNAc(b1-2)Man(a1-6)]Man(b1-4)GlcNAc(b1-4)GlcNAc
How it was run: as §1

[27] = molecular target: Neu5Ac(a2-6)Gal(b1-4)GlcNAc(b1-2)Man(a1-3)[Neu5Ac(a2-6)Gal(b1-4)GlcNAc(b1-2)Man(a1-6)]Man(b1-4)GlcNAc(b1-4)GlcNAc
How it was run: as §1

[28] = molecular target: Neu5Ac(a2-6)Gal(b1-4)GlcNAc(b1-2)Man(a1-3)[Neu5Ac(a2-6)Gal(b1-4)GlcNAc(b1-2)Man(a1-6)]Man(b1-4)GlcNAc(b1-4)[Fuc(a1-6)]GlcNAc
How it was run: as §1

[29] = molecular target: Neu5Ac(a2-6)Gal(b1-4)GlcNAc(b1-2)Man(a1-6)Man(b1-4)GlcNAc(b1-4)GlcNAc
How it was run: as §1

[30] = molecular target: Neu5Ac(a2-6)Gal(b1-4)GlcNAc(b1-2)Man(a1-6)[Gal(b1-4)GlcNAc(b1-2)Man(a1-3)]Man(b1-4)GlcNAc(b1-4)GlcNAc
How it was run: as §1

[31] = molecular target: Neu5Ac(a2-6)Gal(b1-4)GlcNAc(b1-2)Man(a1-6)[GlcNAc(b1-2)Man(a1-3)]Man(b1-4)GlcNAc(b1-4)GlcNAc
How it was run: as §1

[32] = molecular target: Neu5Ac(a2-6)Gal(b1-4)GlcNAc(b1-2)Man(a1-6)[Man(a1-3)]Man(b1-4)GlcNAc(b1-4)GlcNAc
How it was run: as §1

[33] = molecular target: Neu5Ac(a2-6)Gal(b1-4)GlcNAc(b1-2)[Neu5Ac(a2-6)Gal(b1-4)GlcNAc(b1-4)]Man(a1-3)[GlcNAc(b1-4)][Neu5Ac(a2-6)Gal(b1-4)GlcNAc(b1-2)[Neu5Ac(a2-6)Gal(b1-4)GlcNAc(b1-6)]Man(a1-6)]Man(b1-4)GlcNAc(b1-4)GlcNAc
How it was run: as §1

[34] = molecular target: Neu5Ac(a2-6)Gal(b1-4)GlcNAc(b1-2)[Neu5Ac(a2-6)Gal(b1-4)GlcNAc(b1-4)]Man(a1-3)[GlcNAc(b1-4)][Neu5Ac(a2-6)Gal(b1-4)GlcNAc(b1-4)Man(a1-6)]Man(b1-4)GlcNAc(b1-4)GlcNAc
How it was run: as §1

[35] = molecular target: Neu5Ac(a2-6)Gal(b1-4)GlcNAc(b1-2)[Neu5Ac(a2-6)Gal(b1-4)GlcNAc(b1-6)]Man(a1-6)[Neu5Ac(a2-6)Gal(b1-4)GlcNAc(b1-2)Man(a1-3)][GlcNAc(b1-4)]Man(b1-4)GlcNAc(b1-4)GlcNAc
How it was run: as §1

[36] = molecular target: Neu5Ac(a2-6)Gal(b1-4)GlcNAc(b1-3)Gal(b1-3)GlcNAc
How it was run: as §1

[37] = molecular target: Neu5Ac(a2-6)Gal(b1-4)GlcNAc(b1-3)Gal(b1-4)GlcNAc
How it was run: as §1

[38] = molecular target: Neu5Ac(a2-6)Gal(b1-4)GlcNAc(b1-3)Gal(b1-4)GlcNAc(b1-2)Man(a1-3)[Neu5Ac(a2-6)Gal(b1-4)GlcNAc(b1-3)Gal(b1-4)GlcNAc(b1-2)Man(a1-6)]GalNAc
How it was run: as §1

[39] = molecular target: Neu5Ac(a2-6)Gal(b1-4)GlcNAc(b1-3)Gal(b1-4)GlcNAc(b1-3)Gal(b1-4)GlcNAc
How it was run: as §1

[40] = molecular target: Neu5Ac(a2-6)Gal(b1-4)GlcNAc(b1-3)Gal(b1-4)GlcNAc(b1-3)Gal(b1-4)GlcNAc(b1-2)Man(a1-3)[Neu5Ac(a2-6)Gal(b1-4)GlcNAc(b1-3)Gal(b1-4)GlcNAc(b1-3)Gal(b1-4)GlcNAc(b1-2)Man(a1-6)]GalNAc
How it was run: as §1

[41] = molecular target: Neu5Ac(a2-6)Gal(b1-4)GlcNAc(b1-3)Gal(b1-4)GlcNAc(b1-3)GalNAc
How it was run: as §1

[42] = molecular target: Neu5Ac(a2-6)Gal(b1-4)GlcNAc(b1-3)Gal(b1-4)GlcNAc(b1-3)[Neu5Ac(a2-6)Gal(b1-4)GlcNAc(b1-3)Gal(b1-4)GlcNAc(b1-6)]GalNAc
How it was run: as §1

[43] = molecular target: Neu5Ac(a2-6)Gal(b1-4)GlcNAc(b1-3)Gal(b1-4)GlcNAc(b1-6)[Gal(b1-3)]GalNAc
How it was run: as §1

B1: Gal 7 (Homo sapiens) (protein)
chain: MSNVPHKSSLPEGIRPGTVLRIRGLVPPNASRFHVNLLCGEEGGSDAALHFNPRLDTSEVVFNSKEGGSWGREERGPGVPFGRGQPFEVLIIASDDGFKAVVGDAQYHHFRHRLPLARVRLVEVGGDVQLDSVRIF
- glycan array binding signal (z-score) [1]: -0.11
- glycan array binding signal (z-score) [2]: -0.261
- glycan array binding signal (z-score) [3]: 0.74
- glycan array binding signal (z-score) [4]: 0.144
- glycan array binding signal (z-score) [5]: -0.059
- glycan array binding signal (z-score) [6]: -0.314
- glycan array binding signal (z-score) [7]: -0.298
- glycan array binding signal (z-score) [8]: -0.314
- glycan array binding signal (z-score) [9]: -0.307
- glycan array binding signal (z-score) [10]: -0.334
- glycan array binding signal (z-score) [11]: -0.24
- glycan array binding signal (z-score) [12]: -0.248
- glycan array binding signal (z-score) [13]: -0.111
- glycan array binding signal (z-score) [14]: -0.34
- glycan array binding signal (z-score) [15]: -0.33
- glycan array binding signal (z-score) [16]: -0.142
- glycan array binding signal (z-score) [17]: -0.192
- glycan array binding signal (z-score) [18]: -0.336
- glycan array binding signal (z-score) [19]: -0.26
- glycan array binding signal (z-score) [20]: -0.289
- glycan array binding signal (z-score) [21]: -0.241
- glycan array binding signal (z-score) [22]: -0.371
- glycan array binding signal (z-score) [23]: -0.297
- glycan array binding signal (z-score) [24]: -0.272
- glycan array binding signal (z-score) [25]: -0.277
- glycan array binding signal (z-score) [26]: -0.273
- glycan array binding signal (z-score) [27]: -0.126
- glycan array binding signal (z-score) [28]: 0.329
- glycan array binding signal (z-score) [29]: -0.279
- glycan array binding signal (z-score) [30]: -0.301
- glycan array binding signal (z-score) [31]: -0.26
- glycan array binding signal (z-score) [32]: -0.288
- glycan array binding signal (z-score) [33]: -0.233
- glycan array binding signal (z-score) [34]: -0.266
- glycan array binding signal (z-score) [35]: -0.274
- glycan array binding signal (z-score) [36]: -0.066
- glycan array binding signal (z-score) [37]: 0.174
- glycan array binding signal (z-score) [38]: 0.926
- glycan array binding signal (z-score) [39]: 0
- glycan array binding signal (z-score) [40]: 1.25
- glycan array binding signal (z-score) [41]: -0.258
- glycan array binding signal (z-score) [42]: -0.2
- glycan array binding signal (z-score) [43]: -0.301
